Whole data set: some 33,000 sequences, median “E-score (-0.5 to 0.5)” near -0.012, cut for the highest 2% near 0.29. Some of the results follow.
molecular target: T1, Ybr033w (UniProt P38073); test: PBM E-score (8-mer binding enrichment) (E-score (-0.5 to 0.5)); higher = stronger / more preferred TF binding; most listed sequences are background and not binding sites; conditions: protein concentration: 200 nM; construct: GST-full length
T1 sequence: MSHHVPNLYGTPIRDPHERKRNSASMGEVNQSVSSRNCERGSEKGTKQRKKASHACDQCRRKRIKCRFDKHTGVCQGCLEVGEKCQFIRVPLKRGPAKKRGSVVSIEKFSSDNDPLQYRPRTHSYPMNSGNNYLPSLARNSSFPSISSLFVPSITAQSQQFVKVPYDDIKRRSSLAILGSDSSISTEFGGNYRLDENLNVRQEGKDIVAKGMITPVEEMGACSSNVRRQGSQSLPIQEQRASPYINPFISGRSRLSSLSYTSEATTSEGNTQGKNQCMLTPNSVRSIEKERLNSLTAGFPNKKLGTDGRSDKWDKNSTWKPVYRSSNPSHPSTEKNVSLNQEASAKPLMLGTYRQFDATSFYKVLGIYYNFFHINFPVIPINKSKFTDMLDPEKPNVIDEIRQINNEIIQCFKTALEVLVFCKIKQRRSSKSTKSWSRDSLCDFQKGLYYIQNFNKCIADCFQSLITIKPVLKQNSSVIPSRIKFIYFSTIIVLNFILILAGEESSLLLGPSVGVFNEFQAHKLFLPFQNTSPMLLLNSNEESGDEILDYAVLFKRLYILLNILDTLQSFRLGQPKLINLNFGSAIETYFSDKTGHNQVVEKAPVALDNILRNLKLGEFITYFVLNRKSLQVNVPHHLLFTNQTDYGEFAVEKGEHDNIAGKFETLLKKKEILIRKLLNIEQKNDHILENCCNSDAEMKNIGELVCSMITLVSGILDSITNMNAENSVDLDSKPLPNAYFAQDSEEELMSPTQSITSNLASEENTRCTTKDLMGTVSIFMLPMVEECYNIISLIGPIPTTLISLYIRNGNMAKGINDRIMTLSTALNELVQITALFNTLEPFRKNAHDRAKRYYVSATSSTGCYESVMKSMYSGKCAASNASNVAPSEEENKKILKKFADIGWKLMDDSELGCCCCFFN
Description: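 Universal 'all 10-mer' protein binding microarrays (Agilent AMADID 015681) probed with GST-tagged S. cerevisiae TFs (full-length or DBD) made by in vitro transcription/translation (PURExpress), about 100-200 nM. Bound TF was detected with fluorescent anti-GST. Each ungapped 8-mer (which stands for itself and its reverse complement) is scored by the PBM enrichment score (E-score), a modified Wilcoxon-Mann-Whitney statistic from -0.5 to +0.5, computed with the Universal PBM Analysis Suite. Scale: above 0.35 generally sequence-specific binding.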

| Sequence | PBM E-score |
| --- | --- |
| AGACTCCC | -0.34 |
| AAAGTAGA | 0.138 |
| GATCGCTA | -0.0568 |
| GCACTGGA | -0.099 |
| GCCAATCC | -0.159 |
| CTCAGGGA | -0.272 |
| CTCGACGA | -0.165 |
| CCTGCTCG | -0.401 |
| ATGCGGCA | -0.0591 |
| GTCTAATA | 0.0847 |
| TCGGGAAA | 0.253 |
| AAACGCAT | -0.0811 |
| TATGATAA | 0.274 |
| CCATCCGA | -0.0885 |
| ATTTGACA | 0.148 |
| ATAATCAA | 0.229 |
| CGGCGGAG | -0.157 |
| AGAGTGCC | -0.157 |
| GCAATTTA | 0.307 |
| CTAAGGGC | -0.121 |
| CGCTCTAC | -0.144 |
| ATTGCCGG | -0.0444 |
| CAGCGCAC | -0.0912 |
| AGGCTCGG | -0.0289 |
| ACTTTACA | 0.155 |

| Sequence | PBM E-score |
| --- | --- |
| TATTGGAA | 0.128 |
| CCCGACTA | -0.168 |
| GCAGGGGC | -0.251 |
| GTCTGATA | 0.0219 |
| AGAAACCG | -0.125 |
| AAGTTTCG | 0.26 |
| AAGTGATA | 0.0674 |
| TAATTGGA | 0.242 |
| ACCTCAAT | 0.0334 |
| CGATCAGA | -0.0631 |
| CGAATATA | 0.156 |
| AGTACTTG | 0.0907 |
| CTCCAGGA | -0.141 |
| GCCGATAA | -0.0542 |
| CGGGCACA | -0.197 |
| AACATGTT | 0.144 |
| CACGGAGA | -0.0267 |
| TAAAATCA | 0.274 |
| CGACCGCC | -0.161 |
| CGGGGCGC | -0.311 |
| ACGGCGGG | -0.0856 |
| GGAGCAAA | 0.0274 |
| TTCAGAAA | 0.0979 |
| CAAGCCTC | -0.166 |
| CCAAACCC | -0.0187 |

| Sequence | PBM E-score |
| --- | --- |
| ATGTAATG | 0.263 |
| AACAGGCC | -0.187 |
| GTTTCCAA | -0.00959 |
| ATAGGATA | 0.104 |
| ATGCGCAG | -0.0878 |
| GGGTCAAA | 0.0144 |
| AGTCCCTA | -0.128 |
| ACGTATAG | -0.0583 |
| GACTAAAA | 0.0881 |
| AACTTACC | 0.126 |
| CTAACAAC | 0.0894 |
| AAATTCTA | 0.217 |
| CCGGTATA | 0.00427 |
| ACGGATCA | 0.236 |
| AGTCAATA | 0.169 |
| AGCGGCGA | -0.161 |
| GCTTTGCC | -0.227 |
| GCTTCCAA | 0.0624 |
| CCCGCACA | -0.0799 |
| AAGGTTGT | 0.017 |
| TTAACTAA | 0.274 |
| TCCCCACA | -0.218 |
| GCAAAGTA | 0.113 |
| AACCTGGG | -0.324 |
| GGGTTCTA | -0.097 |

| Sequence | PBM E-score |
| --- | --- |
| AAAGCTTG | 0.147 |
| AGTGAGGA | -0.0172 |
| AAAAGCCC | -0.113 |
| CCTTACCC | -0.172 |
| AATACCCT | 0.0217 |
| CATACGAG | 0.0952 |
| CTTCTATA | 0.166 |
| GCGCAGGA | -0.0732 |
| TCAGCTCA | -0.0122 |
| CTGTTCAC | -0.103 |
| CATCAATG | 0.00414 |
| CACTGACA | -0.144 |
| AAAGTCTG | 0.0631 |
| CTCCGGTA | -0.029 |
| ACACCTGA | -0.0619 |
| ACAGGCAG | -0.0237 |
| AAGGAATC | 0.0309 |
| GTTAGCGA | 0.202 |
| ATGCTTCC | -0.0289 |
| ATTACCCG | -0.0141 |
| CTCCGCTC | -0.0252 |
| ACACGGCA | -0.162 |
| CCGGTGGC | -0.245 |
| AAGACGGT | -0.237 |
| AGCCTCAA | -0.00582 |

| Sequence | PBM E-score |
| --- | --- |
| GCCTTCTA | -0.0832 |
| ACCTTATC | 0.0619 |
| CCCACCCG | 0.0327 |
| AACTTCGT | 0.167 |
| ACCCAATG | -0.0343 |
| ACGGCATC | -0.18 |
| ATGTACTC | 0.102 |
| GTTTTTGA | 0.225 |
| GTTGTGCA | -0.122 |
| GCGGACTA | -0.0323 |
| CGAATTAG | 0.0793 |
| GGGTATAC | -0.0522 |
| CACCTTCG | -0.0183 |
| TCGCTGAA | 0.0818 |
| CGCACCAC | -0.0233 |
| CTACTTCA | 0.0359 |
| AACGTGCG | -0.105 |
| ATAAGTGG | 0.224 |
| AGGCAACA | -0.0891 |
| TCGCACAA | 0.0552 |
| AGGCGGAA | 0.237 |
| GGGCGGTA | -0.279 |
| ATGTAGGC | -0.105 |
| ATACATTG | 0.124 |
| CCTCTACG | -0.183 |

| Sequence | PBM E-score |
| --- | --- |
| GCAGATCA | -0.115 |
| AATTACAC | 0.0688 |
| ATCGTATA | 0.133 |
| CAAGTGCA | -0.0375 |
| AAACCAAC | 0.173 |
| ATTATAGG | 0.186 |
| ATGGCGGC | -0.137 |
| ACTGACCA | -0.132 |
| CAATAAGG | -0.0724 |
| AAACCTAT | 0.163 |
| GCAATTAC | -0.0405 |
| TAATCAAA | 0.258 |
| ACACCAAT | 0.0734 |
| CCTCCGGC | -0.17 |
| ACCAGGAT | 0.195 |
| TCCTGACA | 0.0189 |
| CTATATGA | 0.209 |
| GGTTGAGA | 0.00808 |
| TAAAAAAA | 0.241 |
| ACTGTACA | -0.0895 |
| AGCGTGTC | -0.17 |
| CACGCCGC | -0.185 |
| CGCCGACA | -0.209 |
| ACTTCTAC | 0.0557 |
| TATCTGGA | 0.0261 |

| Sequence | PBM E-score |
| --- | --- |
| CGGTGTGC | -0.216 |
| ACGGCTTG | -0.0473 |
| ATTCCTAG | 0.147 |
| CTATATAA | 0.152 |
| CAGCCAAC | -0.0719 |
| CGGACCCA | -0.204 |
| AGCGGTAT | -0.00079 |
| CAGAACTG | 0.178 |
| AATATTCT | 0.248 |
| AACGTGAG | -0.0277 |
| AAGGCAGG | -0.196 |
| GTGCATCA | 0.0839 |
| GGCAGCTA | 0.0745 |
| AGAGCGTC | -0.081 |
| AGGTCAAT | -0.0294 |
| ATTCAGGC | -0.0158 |
| CCAACCCA | -0.186 |
| ACGACCAT | -0.108 |
| CCACGGTC | -0.326 |
| GGCGCTAC | -0.317 |
| AAAGGCGA | -0.0919 |
| CGGATCGA | -0.0379 |
